# Measured values reported in PubChem BioAssay AID485294 (National Center for Advancing Translational Sciences (NCATS), 2010).
# Out of some 370,000 compounds screened, about 150 (0.041%) were called active. The inconclusive results got no clear call from the source; some entries with a clear call stand among them for comparison. Calls come from the whole dose curve; as a rule, active = well fitted inhibition curve with a large enough effect; inconclusive = small, poorly fitted or top-dose-only effect; inactive = flat fitted curve, though single readings scatter. Potencies of inconclusive entries are left out as doubtful fits.
# Target: Beta-lactamase (Escherichia coli (strain K12)) (UniProt P00811)
# Assay: qHTS Inhibitors of AmpC Beta-Lactamase (assay with detergent); note: nearly all actives have a fitted effect of over 25% in size;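 for activity change, negative = inhibition: 0% = no-compound wells and -100% = no-enzyme wells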
# Settings: AmpC hydrolysis of nitrocefin, absorbance 480 nm, 0.01% Triton; activity change, negative = inhibition: at 114 µM (top of the series)
# Outline: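 20 mM phosphate pH 7.0 + 0.01% (detergent screen) or 0.0001% Triton X-100; 5.3 nM AmpC reagent; cpd preinc 15 min RT; nitrocefin (800 uM stock) to start; A480 q20 s × 4 min; Activity was normalised to no-enzyme and no-compound control wells.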
# Potency is the fitted concentration of half-maximal effect; tags give direction and shape of the fitted curve.
# Sequence of UniProt P00811 (P00811 whole entry, looked up): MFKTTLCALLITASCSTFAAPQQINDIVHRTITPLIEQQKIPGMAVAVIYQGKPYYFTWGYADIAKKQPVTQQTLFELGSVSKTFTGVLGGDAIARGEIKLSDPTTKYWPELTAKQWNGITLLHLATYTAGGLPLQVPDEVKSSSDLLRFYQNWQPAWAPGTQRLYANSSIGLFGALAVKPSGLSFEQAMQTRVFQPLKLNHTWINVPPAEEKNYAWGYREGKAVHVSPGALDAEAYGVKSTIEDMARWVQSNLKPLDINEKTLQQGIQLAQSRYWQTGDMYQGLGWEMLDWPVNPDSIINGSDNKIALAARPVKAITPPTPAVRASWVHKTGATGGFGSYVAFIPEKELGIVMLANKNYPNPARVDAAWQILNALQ
Compound,Potency,"activity change, negative = inhibition"
COc1cc(C(C)=O)ccc1OCC(O)CN1CCN(c2ccc(F)cc2)CC1 (stereo not drawn),"inconclusive [inhibitor, single point]",–
O=C(c1cccs1)N1CCN(C/C=C/c2ccccc2)CC1,"inconclusive [inhibitor, full curve, poor fit]",–
CCCCC(=O)Nc1ccc(C(=O)NNC(=O)c2ccc(C)c(Br)c2)cc1,"inconclusive [inhibitor, partial curve, poor fit]",–
COc1cc(CN(CCN(C)C)Cc2ccccc2)ccc1OCc1ccccc1,"inconclusive [inhibitor, full curve, poor fit]",–
Cc1cc(C(=O)C(=O)NC(C)C)c(C)n1-c1ccc([N+](=O)[O-])cc1,–,inactive: -1.53%
CCn1cc(CN2CCCC(CO)(Cc3ccc(F)cc3)C2)c2ccccc21 (stereo not drawn),"inconclusive [inhibitor, partial curve, poor fit]",–
NC(=O)C1CC(=O)N(CCc2ccc(F)cc2)C1 (stereo not drawn),"inconclusive [inhibitor, full curve, poor fit]",–
CCOc1ccc(N2C(=O)C3CC(C)=C(C)CC3C2=O)c([N+](=O)[O-])c1 (stereo not drawn),"inconclusive [inhibitor, full curve, poor fit]",–
O=C(COC(=O)/C=C/c1cccc(Cl)c1)Nc1ccccc1-c1ccccc1,"inconclusive [inhibitor, full curve]",–
CCN(CC(=O)Nc1c(F)cccc1F)C(=O)c1cccc(-n2cnnn2)c1,"inconclusive [inhibitor, single point]",–
CC1CC(C)CN(C(=O)C(C)N(C)CC(=O)Nc2ccc(Cl)cc2)C1 (stereo not drawn),"inconclusive [inhibitor, full curve, poor fit]",–
CC1CCC2(CC1)SCC(=O)N2c1ccc(F)cc1 (stereo not drawn),–,inactive: -8.1%
CC(C)Cc1nn2c(=O)cc(COC(=O)c3ccccc3NC(=O)c3ccccc3)nc2s1,–,inactive: 4.76%
COc1ccccc1C(=O)Nc1nc2ccccc2s1,–,inactive: -6.99%
CCC(=O)Nc1ccc2c(c1)N(C(C)=O)c1ccccc1CC2,"inconclusive [inhibitor, full curve, poor fit]",–
CN(c1ccccc1)S(=O)(=O)c1cccc(NC(=O)CC(C)(C)C)c1,"inconclusive [inhibitor, full curve, poor fit]",–
OCCn1nc(-c2ccccc2)cc1-c1ccccc1,"inconclusive [inhibitor, single point]",–
CCCC(C(=O)NCC1CCCO1)N(Cc1ccccc1)C(=O)CNS(=O)(=O)c1ccccc1 (stereo not drawn),"inconclusive [inhibitor, full curve, poor fit]",–
